Reference: PubChem BioAssay AID1631 (National Center for Advancing Translational Sciences (NCATS), 2009)
Screen size: about 260,000 compounds; about 890 (0.34%) were called active. Inconclusive means that the source gave no clear call. Such entries were picked first, then a sample of the others. Calls come from the whole dose curve; as a rule, active = well fitted activation curve with a large enough effect; inconclusive = small, poorly fitted or top-dose-only effect; inactive = no such curve, though single readings can be large or run the other way. No potency is given beside an inconclusive call; the fits are too rough.

target: Pyruvate kinase PKM (Homo sapiens) (UniProt P14618); experiment: qHTS Assay for Activators of Human Muscle isoform 2 Pyruvate Kinase; conditions: purified PKM2, Kinase-Glo ATP luminescence; Potency: activation; activation: at 57.5 µM (top of the series), 0% is enzyme alone, no compound; note: nearly all actives have a fitted effect of over 55% in size
UniProt P14618, sequence (P14618 whole entry, looked up, canonical isoform): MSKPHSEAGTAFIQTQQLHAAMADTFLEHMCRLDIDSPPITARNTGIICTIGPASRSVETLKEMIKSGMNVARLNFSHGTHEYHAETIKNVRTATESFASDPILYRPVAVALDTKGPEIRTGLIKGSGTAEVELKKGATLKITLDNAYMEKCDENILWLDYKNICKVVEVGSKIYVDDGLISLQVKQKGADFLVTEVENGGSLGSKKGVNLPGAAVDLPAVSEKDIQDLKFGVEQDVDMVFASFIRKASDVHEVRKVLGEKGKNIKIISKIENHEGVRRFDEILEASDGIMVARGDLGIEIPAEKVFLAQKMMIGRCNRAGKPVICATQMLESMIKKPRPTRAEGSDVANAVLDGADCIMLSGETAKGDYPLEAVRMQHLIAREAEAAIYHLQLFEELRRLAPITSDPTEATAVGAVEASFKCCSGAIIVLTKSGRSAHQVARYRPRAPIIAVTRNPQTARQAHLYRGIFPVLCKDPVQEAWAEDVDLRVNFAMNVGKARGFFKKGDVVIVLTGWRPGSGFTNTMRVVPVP
How it was run: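 ATP formation by purified human PK-M2, quantified via coupled luciferase luminescence after 1 h at room temperature with 0.1 mM ADP and 0.5 mM PEP final.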
% is set by controls: 0 for no effect and ±100 for the full control effect; potency is the fitted concentration of half-maximal effect; tags give direction and shape of the fitted curve.

| SMILES | Potency | activation |
| --- | --- | --- |
| Cn1c(=O)c2c(SCc3cccnc3)nc(C3CC3)nc2n(C)c1=O | inconclusive [rising, partial curve, poor fit] | – |
| Cc1ccc(-c2nc3ccccc3[nH]2)cc1NC(=O)/C=C/c1ccco1 | inconclusive [rising, single point] | – |
| O=C(Nc1cccc(NC(=O)c2ccco2)c1)c1ccc2c(c1)OCCO2 | – | inactive: -4.98% |
| CN(CCO)c1cc(Sc2nc3ccccc3s2)c2nonc2c1[N+](=O)[O-] | inconclusive [rising, partial curve] | – |
| Cc1nnc2sc(SCc3ccccc3)nn2c1=O | inconclusive [rising, partial curve] | – |
| COc1ccc(CNC(=O)CCc2nc3cc(S(=O)(=O)N(C)C)ccc3n2C)cc1OC | inconclusive [rising, single point] | – |
| CCOc1cc(/C=N/O)cc(Cl)c1OC | inconclusive [rising, single point] | – |
| Cc1cc(C)c2[nH]c(=O)c(C(c3nnnn3Cc3ccc4c(c3)OCO4)N3CCCCC3)cc2c1 (centres undefined) | inconclusive [rising, full curve, poor fit] | – |
| Cn1c(=O)c2c(nc(OCc3ccccc3)n2C)n(C)c1=O | inconclusive [rising, partial curve] | – |
| Cc1cc(SCC(=O)OCC(=O)N2CCN(C(=O)c3ccco3)CC2)c(C)cc1Br | active: 25.1 µM | – |
| CC(C)NC(=O)NC(=O)CSc1ncc(C(F)(F)F)cc1Cl | active: 14.1 µM | – |
| O=C(CCC(=O)n1ncc2ccccc21)NCc1ccccc1Cl | inconclusive [rising, single point] | – |
| Cc1ccc(NS(=O)(=O)c2c(C)nc3sccn3c2=O)cc1 | active: 10 µM | – |
| CCOC(=O)c1cc2c(ccn2C)n1CC(=O)N1CCN(c2cccc(C(F)(F)F)c2)CC1 | active: 31.6 µM | – |
| COc1ccc(CCN(Cc2nc3ccccc3c(=O)[nH]2)C(=O)c2ccco2)cc1 | inconclusive [rising, single point] | – |
| Cc1ccc2nc3c(cc2c1)CN(Cc1ccco1)C(=NCC1CCCO1)S3 (centres undefined) | inconclusive [rising, single point] | – |
| O=C(Nc1ccc(S(=O)(=O)Nc2nccs2)cc1)C1=NN(c2ccccc2)C(=O)CC1 | inconclusive [rising, single point] | – |
| O=c1c2c3nc4ccccc4nc3n(Cc3ccccc3)c2ncn1Cc1ccco1 | inconclusive [rising, full curve] | – |
| CCOc1ccc2nc(NS(=O)(=O)c3cccs3)sc2c1 | inconclusive [rising, partial curve] | – |
| CCc1ccccc1N1C(=O)C(Cl)=C(N2CCOCC2)C1=O | inconclusive [rising, single point] | – |
| CCOC(=O)/C=C1\SCC(=O)N1Cc1nnc(-c2ccccc2Br)o1 | inconclusive [rising, partial curve] | – |
| CCNC(=O)COC(=O)c1sccc1C | inconclusive [rising, full curve, poor fit] | – |
| Cc1nc(N2CCOCC2)c2c3c(sc2n1)CCC3 | – | inactive: 0.163% |
| CCOC(=O)C1CCN(C(=O)CS(=O)Cc2nc(-c3ccc(C)cc3)oc2C)CC1 (centres undefined) | – | inactive: 12% |
| O=C1c2ccccc2C(=O)N1CCC(c1ccc(F)cc1)c1ccco1 (centres undefined) | inconclusive [rising, partial curve] | – |

| SMILES | Potency | activation |
| --- | --- | --- |
| CCOC(=O)c1c(-c2cccs2)csc1NC(C)=O | – | inactive: 25.3% |
| Cc1ccc2c(c1)c(N=O)c(O)n2Cc1ccc(Cl)cc1 | – | inactive: -4.37% |
| CCOc1cccc2c1OC1(CCCCC1)N1N=C(c3cccnc3)CC21 (centres undefined) | inconclusive [rising, single point] | – |
| COc1ccccc1N1CCN(c2nc(N)c(C#N)c(CC#N)c2C#N)CC1 | inconclusive [rising, partial curve, poor fit] | – |
| Cc1ccc2oc(C(=O)N(C)Cc3ccc(C)o3)c(C)c2c1 | active: 6.31 µM | – |
| O=C(O)c1cccc(NC(=O)c2ccc(S(=O)(=O)c3ccccc3)cc2)c1 | – | inactive: -0.934% |
| O=C1COc2ccc(S(=O)(=O)N3CCc4ccccc43)cc2N1 | active: 14.1 µM | – |
| COc1ccc(/C=N/N=C2/NC(=O)C(CC(=O)O)S2)cc1OCc1ccc(Cl)cc1Cl (centres undefined) | inconclusive [rising, single point] | – |
| Cn1c(=O)n(C)c2cc(NS(=O)(=O)c3ccc(Br)s3)ccc21 | inconclusive [rising, single point] | – |
| CCOC(=O)c1ccc(NC(=O)CSc2nnc(CCc3ccc(C)o3)n2-c2ccccc2)cc1 | inconclusive [rising, single point] | – |
| COc1ccc(Br)c(/C=N/NC(=O)COc2ccc(-c3ccccc3)cc2)c1 | inconclusive [rising, partial curve, poor fit] | – |
| COc1ccccc1NC(=O)CSc1nc2c(sc3ccccc32)c(=O)n1CCN(C)C | – | inactive: 6.22% |
| CC(C)=NOc1cc(NC(=O)CCl)cc([N+](=O)[O-])c1 | – | inactive: 0.89% |
| CCN(CC)C(=O)C(=O)c1cccn1-c1ccc(C#N)cc1 | inconclusive [rising, single point] | – |
| CCCC(C)NC(=O)c1ccc(C2SCC(=O)N2Cc2ccco2)cc1 (centres undefined) | – | inactive: -0.272% |
| N#Cc1c(SCC(N)=O)nsc1SCc1ccccc1Cl | inconclusive [rising, partial curve] | – |
| COc1ccc(Cn2c(N)c(C#N)c3nc4ccccc4nc32)cc1OC | – | inactive: 2.79% |
| Cc1nc2ccc(N=NN(C)C)cc2[nH]1 | active: 10 µM | – |
| O=C1CC(c2ccccc2)CN1S(=O)(=O)c1ccccc1 (centres undefined) | inconclusive [rising, single point] | – |
| O=C(NCc1ccco1)N1c2ccccc2Sc2ccccc21 | – | inactive: 8.24% |
| COc1ccc(-n2cnc(N)c2C(=O)c2cccc([N+](=O)[O-])c2)cc1 | – | inactive: -1.03% |
| COc1ccc(S(=O)(=O)N2CCN(C(=O)C3CCCO3)CC2)cc1 (centres undefined) | inconclusive [rising, partial curve] | – |
| Cc1ccc(NC(=O)CNc2ccc(N3CCOCC3)cc2)cc1S(=O)(=O)N(C)C | – | inactive: 1.25% |
| Cn1c(OCc2cccnc2)nc2c1c(=O)n(Cc1ccc(F)cc1)c(=O)n2C | inconclusive [rising, partial curve] | – |
| CCCCNC(=S)N(C)/N=C/c1ccc(F)cc1 | – | inactive: -2.97% |

| SMILES | Potency | activation |
| --- | --- | --- |
| COCCOC(=O)c1[nH]c2c(c1C)C(=O)CC(c1ccco1)C2 (centres undefined) | inconclusive [rising, single point] | – |
| Oc1ccccc1CNc1nc2ccccc2n1CCN1CCCCC1 | inconclusive [rising, single point] | – |
| COc1ccc2cc(C(=O)C3CCCN(Cc4cccc(C)n4)C3)ccc2c1 (centres undefined) | inconclusive [rising, single point] | – |
| O=C(Nn1cc(C(=O)Nc2ccc(F)cc2F)c2ccccc2c1=O)c1cnccn1 | – | inactive: -3.65% |
| Cn1c(COc2ccccc2)nnc1SCCSc1nnc(COc2ccccc2)n1C | inconclusive [rising, single point] | – |
| Cc1ccccc1OCc1nc2ccccc2c(=O)n1/N=C/c1cn[nH]c1-c1ccccc1 | – | inactive: 0.99% |
| CN(Cc1ccccc1)C(=O)COC(=O)c1cc(NS(=O)(=O)c2cccs2)ccc1O | inconclusive [rising, partial curve] | – |
| CCOc1ccc(-n2nc3ccc(N)cc3n2)cc1 | inconclusive [rising, single point] | – |
| Cc1ccc(-c2ccccc2)n1-c1ccc(C(=O)O)cc1 | inconclusive [rising, partial curve] | – |
| O=c1c2cc(Cl)ccc2[nH]c(=S)n1Cc1cccs1 | inconclusive [rising, full curve, poor fit] | – |
| CC1=CC2=NC(=O)/C(=C\c3ccc(-c4cccc(Cl)c4)o3)C(=N)N2O1 | – | inactive: 16.5% |
| O=S(=O)(c1ccccc1)N1CCN(c2ccnc3cc(Cl)ccc23)CC1 | inconclusive [rising, single point] | – |
| C#CCNC(=O)C1=C[C@@H](c2csc3ccccc23)C[C@@H](OCc2ccc(CO)cc2)O1 | inconclusive [rising, single point] | – |
| Cc1ccc(/C=N/N2CCN(C3c4ccccc4-c4ccccc43)CC2)o1 | inconclusive [rising, single point] | – |
| CCN(CC)S(=O)(=O)c1ccc(Cl)c(NC(=O)CSc2cccc[n+]2[O-])c1 | – | inactive: 2.6% |
| CC(=O)c1c(C)[nH]c(C(=O)/C(C#N)=C/c2cccc(C)c2)c1C | inconclusive [rising, single point] | – |
| O=C(Nc1ccc(NC(=O)c2cccc([N+](=O)[O-])c2)cc1)c1cccc([N+](=O)[O-])c1 | – | inactive: 8.57% |
| O=C(COc1ccc(Br)cc1)Nc1nnc(-c2cccnc2)s1 | – | inactive: -0.317% |
| CCCCCn1nc(C)c(/C=N/NC(=O)c2ccoc2C)c1C | – | inactive: -22.1% |
| CCOc1ccccc1CNS(=O)(=O)c1ccc2[nH]c(=O)sc2c1 | inconclusive [rising, single point] | – |
| CCn1c(SCC(=O)Nc2ccccc2)nc2nc3c(cc2c1=O)COC(C)(C)C3 | – | inactive: -5.54% |
| COc1ccc2cc3c(N)nn(C(=O)c4ccccc4Cl)c3nc2c1 | active: 20 µM | – |
| CCOc1ccc(NC2C=CS(=O)(=O)C2)cc1 (centres undefined) | inconclusive [rising, single point] | – |
| COc1cccc(N(C(=O)c2cnccn2)C(C(=O)NC2CCCCC2)c2ccc(Cl)cc2)c1 (centres undefined) | – | inactive: -0.07% |
